Screen size: about 310,000 compounds; about 14,000 (4.5%) showed an effect of 50% or more. The effect is printed as a negative number. Some of the results follow.
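Also: peak tail current of the secondary pulse compared with the same well before compound.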

For the assay, the target named is human ether-à-go-go-related gene (hERG) potassium channel (human, UniProt Q12809). The experiment in a line: primary screen, population patch clamp on CHO cells stably expressing hERG.
human ether-à-go-go-related gene (hERG) potassium channel, sequence (Q12809 whole entry, looked up): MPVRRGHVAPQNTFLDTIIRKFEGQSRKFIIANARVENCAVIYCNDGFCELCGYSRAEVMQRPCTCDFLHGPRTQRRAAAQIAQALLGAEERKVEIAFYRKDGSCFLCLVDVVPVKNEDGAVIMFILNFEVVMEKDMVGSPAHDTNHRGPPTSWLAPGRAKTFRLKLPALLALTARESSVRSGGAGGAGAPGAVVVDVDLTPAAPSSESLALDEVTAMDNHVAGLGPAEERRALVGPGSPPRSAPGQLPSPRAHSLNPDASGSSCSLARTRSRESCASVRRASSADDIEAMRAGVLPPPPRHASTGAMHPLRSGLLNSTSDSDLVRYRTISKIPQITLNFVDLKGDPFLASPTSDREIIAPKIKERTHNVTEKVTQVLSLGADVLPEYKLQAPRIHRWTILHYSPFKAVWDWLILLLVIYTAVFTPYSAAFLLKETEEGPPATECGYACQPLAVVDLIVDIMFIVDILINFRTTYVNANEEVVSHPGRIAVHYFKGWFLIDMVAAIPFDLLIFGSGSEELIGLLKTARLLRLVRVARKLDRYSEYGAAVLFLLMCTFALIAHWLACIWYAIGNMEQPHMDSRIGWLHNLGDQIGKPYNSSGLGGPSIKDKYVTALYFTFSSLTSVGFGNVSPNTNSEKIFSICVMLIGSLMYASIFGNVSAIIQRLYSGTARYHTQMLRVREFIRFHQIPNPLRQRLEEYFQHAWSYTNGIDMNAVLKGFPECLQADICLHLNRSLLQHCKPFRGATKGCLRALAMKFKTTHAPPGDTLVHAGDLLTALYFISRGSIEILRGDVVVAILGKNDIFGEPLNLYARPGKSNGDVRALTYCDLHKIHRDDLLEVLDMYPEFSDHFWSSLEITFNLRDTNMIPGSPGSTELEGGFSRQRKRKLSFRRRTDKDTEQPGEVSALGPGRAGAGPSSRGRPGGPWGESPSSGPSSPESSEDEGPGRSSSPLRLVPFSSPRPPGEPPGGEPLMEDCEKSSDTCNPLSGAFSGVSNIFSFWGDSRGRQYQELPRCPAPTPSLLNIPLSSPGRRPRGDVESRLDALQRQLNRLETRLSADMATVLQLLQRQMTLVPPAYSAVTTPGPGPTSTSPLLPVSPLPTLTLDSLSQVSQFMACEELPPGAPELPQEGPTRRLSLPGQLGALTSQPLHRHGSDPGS
Turning to `Cc1cc(C)nc(N=Nc2c(O)n(Cc3ccc(Cl)cc3)c3ccccc23)n1`, the “hERG current change (%, negative = inhibition) at 10uM” value is 10.7%. Then `O=C1NC(c2ccccc2)(C(F)(F)F)C(=O)N1Cc1cccnc1` (centres unmarked), with -1.67%; and `NC(=O)CC(NC(=O)Cc1ccc(Br)cc1)c1ccc(NC2CC3CCC2C3)c([N+](=O)[O-])c1` (centres unmarked), with 1.31%. Under `COc1c(Cl)cc(Cl)cc1CNc1ccc(S(N)(=O)=O)cc1` stands 8.56%; under `CCn1c(SCC(=O)N/N=C/c2c[nH]c3ccccc23)nnc1-c1ccc(C(C)(C)C)cc1`, 2.01%. Then `CCCCNC(=O)CCCCC(=O)N/N=C/c1ccccc1Cl`, with 1.26%; and `CCN1C=CC(=C2C(=O)c3ccccc3C2=O)C=C1`, with -12.6%; and `Nc1nc2n(n1)C(=O)CC(c1ccc(Cl)cc1)N2` (centres unmarked), with -15%. Take `O=C(NCc1nnc(SCc2ccc(C(F)(F)F)cc2)n1-c1ccccc1)C12CC3CC(CC(C3)C1)C2`: the “hERG current change (%, negative = inhibition) at 10uM” value is on record as -1.48%. Under `CCOc1cc(/C=C2\CN(CC)C/C(=C\c3ccc(O)c(OCC)c3)C2=O)ccc1O.Cl` stands -38.9%; under `O=C(CCn1c(=O)oc2ccccc21)Nc1cccc(Cl)c1`, -2.8%; under `COc1cccc2cc(C(=O)NCc3ccco3)c(=Nc3ccc(C(=O)O)cc3)oc12`, -19.6%. Under `CC(OC(=O)CCCN=C1NS(=O)(=O)c2ccccc21)C(=O)Nc1ccccc1[N+](=O)[O-]` (centres unmarked) stands -10.8%.

Take `CC1(C)CC(=O)C2=C(C1)NC(SCC(N)=O)=C(C#N)C21CCCCC1`: the “hERG current change (%, negative = inhibition) at 10uM” value came to 12.3%.

On to `COc1cccc(N2CCN(Cc3ccsc3)CC2)c1`, for which the “hERG current change (%, negative = inhibition) at 10uM” value was -33.1%.

Regarding `COC(=O)Nc1ccc(N=C(N)N[N+](=O)[O-])cc1`, the “hERG current change (%, negative = inhibition) at 10uM” value is 15.4%. `CN1CCN(C(=O)C2=C[C@@H](C3CC3)C[C@@H](OCc3ccc(CO)cc3)O2)CC1`: the “hERG current change (%, negative = inhibition) at 10uM” value was 16.5%.

Regarding `CCOc1ccc2ccccc2c1C(=O)N[C@@H]1C(=O)N2[C@@H]1SC(C)(C)[C@@H]2C(=O)[O-].[Na+]`, the “hERG current change (%, negative = inhibition) at 10uM” value was 11.4%. Then `COc1cc2c(cc1OC)C1(CCCC1)CNC2c1cccc([N+](=O)[O-])c1` (centres unmarked), with -43.3%; and `O=C(Oc1ccc2ccccc2c1Cl)N1CCCC1`, with -17.4%; and `O=C(O)CNS(=O)(=O)c1cc(Cl)c(Cl)cc1Cl`, with 6.77%.

Consider `CCOC(=O)C1CCCN(C(=O)c2sc3nc(C)nc(N4CCOCC4)c3c2C)C1` (centres unmarked), for which the “hERG current change (%, negative = inhibition) at 10uM” value is -3.42%. Under `CCC(=O)N1CCc2cc(S(=O)(=O)CCC(=O)NCCc3ccc(S(N)(=O)=O)cc3)ccc21` stands 13.5%.

The values above are taken from article PMC4336329 (PLoS ONE, 2015).
